The record followed here is PMC5397843.

Sequences of proteins named here, by UniProt entry; tags and fusion partners are left off. A change or cut given only in a name is not applied to a line headed by its entry. Residues count along the entry.
UniProt P40337: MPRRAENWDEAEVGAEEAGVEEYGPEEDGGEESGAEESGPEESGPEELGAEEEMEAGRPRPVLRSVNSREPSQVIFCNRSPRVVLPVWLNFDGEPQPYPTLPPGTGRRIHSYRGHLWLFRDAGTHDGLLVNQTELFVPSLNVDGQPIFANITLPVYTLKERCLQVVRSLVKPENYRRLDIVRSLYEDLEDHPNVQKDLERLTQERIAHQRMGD
UniProt P38936: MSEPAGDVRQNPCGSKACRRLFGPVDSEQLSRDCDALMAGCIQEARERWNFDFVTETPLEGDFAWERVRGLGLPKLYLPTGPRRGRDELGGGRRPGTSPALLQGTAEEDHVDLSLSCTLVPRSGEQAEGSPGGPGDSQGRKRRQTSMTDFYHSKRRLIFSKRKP
p21-ΔN (residues 50-164), Gal4 DBD fusion: residues 50-164 of P38936
UniProt P46527: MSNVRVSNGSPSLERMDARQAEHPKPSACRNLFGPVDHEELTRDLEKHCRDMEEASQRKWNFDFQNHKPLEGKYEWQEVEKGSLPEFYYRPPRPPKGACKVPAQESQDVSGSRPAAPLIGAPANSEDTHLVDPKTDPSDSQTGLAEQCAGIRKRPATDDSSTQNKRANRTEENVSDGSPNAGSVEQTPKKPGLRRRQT
p27-NT (residues 1-60), Gal4 DBD fusion: residues 1-60 of P46527
p27-ΔN (residues 61-198), Gal4 DBD fusion: residues 61-198 of P46527

These are yes or no findings as the source states them, for the method shown. For part of these data: Binding seen in cells or lysates may run through a third protein. Some binding calls cover weakened binding; strength is not graded here. For part of these data: Tags and fused reporters may be left off the sequences shown.

Test [1] addresses HA-tagged pVHL30 (human) (UniProt P40337). The test is described as follows: co-IP; HEK293T transiently transfected with HA-pVHL30 and FLAG-CDKN1; post-nuclear supernatant (20 mM HEPES-Na pH 7.4, 150 mM NaCl, 5 mM CHAPS); anti-VHL antibody on protein A magnetic beads, 4 h at 4 °C; blot with anti-Flag.
In test [2] the target is p21 (CDKN1A), Gal4 DBD fusion (human) (UniProt P38936). Description: two-hybrid; Matchmaker Gold system, Y190 reporter strain; Gal4AD-pVHL and Gal4BD-CDKN1 fusions; serial dilutions spotted on medium lacking histidine with 30 mM 3-AT, 30 °C, 3 to 8 days.
Test [3] deals with p27 (CDKN1B), Gal4 DBD fusion (human) (UniProt P46527). The test is described as above.
Test [4] addresses T1, p57 (CDKN1C), Gal4 DBD fusion (human) (UniProt P49918).
T1 sequence: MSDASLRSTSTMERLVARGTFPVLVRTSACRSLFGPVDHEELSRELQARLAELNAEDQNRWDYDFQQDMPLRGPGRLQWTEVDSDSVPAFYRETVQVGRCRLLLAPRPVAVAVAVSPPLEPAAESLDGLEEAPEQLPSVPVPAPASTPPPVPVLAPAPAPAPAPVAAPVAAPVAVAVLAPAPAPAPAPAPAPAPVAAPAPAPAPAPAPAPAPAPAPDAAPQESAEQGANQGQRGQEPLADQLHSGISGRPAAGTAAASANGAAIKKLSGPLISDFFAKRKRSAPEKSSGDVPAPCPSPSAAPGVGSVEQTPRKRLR
Described as above.

The target of test [5] is p27 (CDKN1B), Gal4 DBD fusion (human) (UniProt P46527). The test is described as follows: two-hybrid; Y190; pVHL30 with p27 wild type or mutants; selective medium supplemented with 60 mM 3AT to increase the stringency.
Test [6] addresses p27 D37N, Gal4 DBD fusion (human) (UniProt P46527). The description is as above.
For test [7], the target named is p27 E40K, Gal4 DBD fusion (human) (UniProt P46527). Described as above.
Test [8] concerns the target p27 P35L, Gal4 DBD fusion (human) (UniProt P46527). The description is as above.
Test [9] concerns the target p27 T42A, Gal4 DBD fusion (human) (UniProt P46527). The description is as above.
Test [10] concerns the target p21-ΔN (residues 50-164), Gal4 DBD fusion (human) (UniProt P38936). Description: two-hybrid; Matchmaker Gold system, Y190 reporter strain; Gal4AD-pVHL and Gal4BD-CDKN1 fusions; serial dilutions spotted on medium lacking histidine with 30 mM 3-AT, 30 °C, 3 to 8 days.
Test [11] addresses p27-NT (residues 1-60), Gal4 DBD fusion (human) (UniProt P46527). The test is described as above.
The target of test [12] is p27-ΔN (residues 61-198), Gal4 DBD fusion (human) (UniProt P46527). The description is as above.
Test [13] deals with T2, p57-NT (residues 1-61), Gal4 DBD fusion (human) (UniProt P49918).
T2 sequence: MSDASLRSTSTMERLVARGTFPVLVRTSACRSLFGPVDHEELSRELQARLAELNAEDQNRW
Described as above.

In test [14] the target is T3, p57-ΔN (residues 62-316), Gal4 DBD fusion (human) (UniProt P49918).
T3 sequence: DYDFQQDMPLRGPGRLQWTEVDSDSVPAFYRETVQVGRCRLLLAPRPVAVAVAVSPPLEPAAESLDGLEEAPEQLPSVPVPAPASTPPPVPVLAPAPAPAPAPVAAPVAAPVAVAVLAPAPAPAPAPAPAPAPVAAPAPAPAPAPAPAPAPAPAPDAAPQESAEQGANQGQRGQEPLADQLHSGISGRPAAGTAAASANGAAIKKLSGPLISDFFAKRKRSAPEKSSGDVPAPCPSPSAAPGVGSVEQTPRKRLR
The description is as above.

With “Flag-tagged p27 (CDKN1B) (from UniProt P46527 1-198)”, in [1], the binding result is “binds”.

“pVHL β-domain (residues 54-157), Gal4 AD fusion (from UniProt P40337 54-157) (domain or fragment)”: the binding entry in [2], in test [3] and in test [4] was “binds” each time.

Turning to “pVHL19 isoform (residues 54-213), Gal4 AD fusion (from UniProt P40337 54-213)”, the binding entry in test [2], in test [3] and in test [4] was “binds” each time.

As for “pVHL N-terminal disordered tail (residues 1-53), Gal4 AD fusion (from UniProt P40337 1-53) (domain or fragment)”, the binding entry in test [2], in test [3] and in [4] was “no binding” throughout.

As to “Flag-tagged p21 (CDKN1A) (from UniProt P38936 1-164)”, in test [1], the binding result is “binds”.

As to “von Hippel-Lindau tumor suppressor protein pVHL30, Gal4 AD fusion (from UniProt P40337 1-213)”, the binding entry in test [5] is “binds”; in test [6] it was “binds”; in test [7], “binds weakly”; in [8] it was “binds”; in test [9], “binds”; in test [2] it was “binds”. Besides, the binding result in test [10] is “no binding”; in test [3] it was “binds”; in [11] it was “binds”; in test [12], “no binding”; in [4], “binds”; in test [13] it was “binds”. Moreover, in test [14], the binding entry is listed as “no binding”.
